We go through 44 molecules from paper PMC4336329 (PLoS ONE, 2015).

The campaign covered roughly 310,000 compounds. About 14,000 (4.5%) showed an effect of 50% or more. Effects have a minus sign here. This is one part of the list.
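Also: peak tail current of the secondary pulse compared with the same well before compound.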

This assay deals with human ether-à-go-go-related gene (hERG) potassium channel (human, UniProt Q12809). The assay is described as follows: primary screen, population patch clamp on CHO cells stably expressing hERG.
Chain of human ether-à-go-go-related gene (hERG) potassium channel (Q12809 whole entry, looked up): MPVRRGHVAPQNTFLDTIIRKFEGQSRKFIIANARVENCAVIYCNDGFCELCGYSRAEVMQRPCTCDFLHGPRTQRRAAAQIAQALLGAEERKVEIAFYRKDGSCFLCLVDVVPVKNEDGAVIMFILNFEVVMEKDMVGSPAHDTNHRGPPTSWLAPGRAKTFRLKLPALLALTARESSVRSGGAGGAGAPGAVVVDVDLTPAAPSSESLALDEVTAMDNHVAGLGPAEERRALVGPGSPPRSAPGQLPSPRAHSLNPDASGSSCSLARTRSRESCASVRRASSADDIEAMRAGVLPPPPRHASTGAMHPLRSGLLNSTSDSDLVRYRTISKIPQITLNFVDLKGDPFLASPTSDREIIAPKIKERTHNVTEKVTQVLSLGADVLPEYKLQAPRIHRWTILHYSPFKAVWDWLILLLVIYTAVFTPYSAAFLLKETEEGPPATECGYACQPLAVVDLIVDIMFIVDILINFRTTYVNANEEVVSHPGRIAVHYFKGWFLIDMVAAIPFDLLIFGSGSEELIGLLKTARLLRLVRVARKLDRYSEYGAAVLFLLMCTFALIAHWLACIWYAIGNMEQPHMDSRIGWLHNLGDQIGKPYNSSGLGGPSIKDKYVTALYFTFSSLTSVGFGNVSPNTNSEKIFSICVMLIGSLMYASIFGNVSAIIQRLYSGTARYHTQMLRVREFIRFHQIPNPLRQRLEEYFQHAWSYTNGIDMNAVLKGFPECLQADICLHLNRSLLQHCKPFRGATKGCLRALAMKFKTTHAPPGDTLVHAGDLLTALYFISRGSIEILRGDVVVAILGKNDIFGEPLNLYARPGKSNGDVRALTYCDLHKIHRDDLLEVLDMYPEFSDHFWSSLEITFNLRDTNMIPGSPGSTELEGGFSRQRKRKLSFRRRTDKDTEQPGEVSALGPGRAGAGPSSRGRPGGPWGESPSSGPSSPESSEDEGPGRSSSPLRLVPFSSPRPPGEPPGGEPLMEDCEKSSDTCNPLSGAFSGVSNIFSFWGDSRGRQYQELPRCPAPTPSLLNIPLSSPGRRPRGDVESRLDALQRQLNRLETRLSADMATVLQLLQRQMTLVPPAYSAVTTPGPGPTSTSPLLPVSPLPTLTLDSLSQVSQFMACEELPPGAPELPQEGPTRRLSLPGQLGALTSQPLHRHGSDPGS
`Cc1ccc(S(=O)(=O)N2CCOCC2)cc1C(=O)NC(=S)N(Cc1ccccc1)C(C)C`: the “hERG current change (%, negative = inhibition) at 10uM” value is on record as 7.15%. With `CCc1cc(C(=O)OC)c(NC(=O)CC2SC(N)=NC2=O)s1` (centres unmarked) the figure was -6.56%; with `COc1ccc(C(=O)CCN2CCCCCC2)cc1.Cl`, -20%; with `CCOc1ccccc1C(=O)N(CCC(=O)OC)c1ccccn1`, 13.7%. As for `O=C(CSc1nnnn1C1CCCCC1)Nc1ccc2c(c1)OCO2`, the “hERG current change (%, negative = inhibition) at 10uM” value was determined as 14%. Consider `O=C(O)CCc1nn2c3ccccc3nc2n(Cc2ccccc2)c1=O`, for which the “hERG current change (%, negative = inhibition) at 10uM” value is 36.2%. As for `COCCC1CCCCN1C(=O)c1cc(COc2ccc(C)nc2)on1` (centres unmarked), the figure is -16.2%; as for `O=C(NNC(=O)c1sc2cccc(Cl)c2c1Cl)NC1CCCCC1`, 13.8%; as for `O=C(NCCCc1ccccc1)C1CC(=O)N(c2ccc3c(c2)OCCO3)C1` (centres unmarked), -11.1%. With `CN1C(=S)SC(N(O)C(=O)Nc2ccc(Cl)c(Cl)c2)C1(C)C` (centres unmarked), the “hERG current change (%, negative = inhibition) at 10uM” value worked out at 1.39%. As for `COc1ccc(C(=O)CSc2nnnn2Cc2ccccc2)cc1`, the figure is -2.62%; as for `CSc1cccc(NC(=O)CCS(=O)(=O)c2cccc3nonc23)c1`, -15.1%; as for `CC(=O)NC(Cc1cccc(F)c1)C(=O)NC1CCN(c2nnnn2-c2ccccc2)CC1` (centres unmarked), -5.71%. For the molecule `O=C1CCCN1CC(O)CS(=O)(=O)Cc1ccccc1` (centres unmarked), the “hERG current change (%, negative = inhibition) at 10uM” value came to 12.9%. As for `CC1(c2ccc(Cl)cc2)NC(=O)N(CN2CCOCC2)C1=O` (centres unmarked), the “hERG current change (%, negative = inhibition) at 10uM” value was 19%.

Turning to `COc1ccccc1N1C(=O)Cc2ccccc2C1=O`, the “hERG current change (%, negative = inhibition) at 10uM” value amounted to 13.3%. With `COC(=O)C1=C(c2ccc(-c3ccccc3)c(F)c2)C[C@@H]2CC[C@H]1N2C(=O)NCCOc1ccccc1Cl` the figure was 13.4%.

In the case of `Cc1cc2cc(C(c3nnnn3Cc3ccco3)N3CCCCC3)c(=O)[nH]c2cc1C` (centres unmarked), the “hERG current change (%, negative = inhibition) at 10uM” value was found to be 21.9%. On to `COC(=O)C1(CC2CC(c3ccccc3)=NO2)CCN(C(=O)OC(C)(C)C)CC1` (centres unmarked), for which the “hERG current change (%, negative = inhibition) at 10uM” value was -11.4%. With `N#Cc1cccc(NC(=O)CSc2ccccc2)c1` the figure was 1.96%; with `CC[C@@H](C)C(NC(=O)OC(C)(C)C)c1cn([C@@H](CCC(=O)OC(C)(C)C)C(=O)N2CCN(C(=O)OC(C)(C)C)CC2)nn1` (some centres unmarked), -17.6%; with `CC(Cc1ccccc1)NC(=O)Cc1ccc(N(C)C)cc1` (centres unmarked), 2.93%. With `Cc1ccccc1CNC(=O)c1cc2ccccc2o1` the figure was 3.09%; with `O=C(CN1CCOCC1)Nc1nc(-c2ccc3c(c2)CCN3S(=O)(=O)c2ccccc2)cs1`, 15.5%. As for `COc1cccc(CNC(=O)C2CC(=O)N(c3ccc4c(c3)OCCO4)C2)c1` (centres unmarked), the “hERG current change (%, negative = inhibition) at 10uM” value worked out at 7.58%. With `CCC(C(=O)NCCc1c[nH]c2cc(OC)ccc12)c1ccccc1` (centres unmarked) the figure was 8.86%. On to `CCCNC(=O)Nc1ccc(C(F)(F)F)cc1`, for which the “hERG current change (%, negative = inhibition) at 10uM” value stood at 1.65%. With `COc1ccc(-c2nnc(SCC(=O)Nc3cccnc3Cl)n2C)cc1` the figure was -25%; with `Cc1cc(C(=O)N/N=C/c2ccc(-c3ccc(C)c(Cl)c3)o2)n[nH]1`, 2.16%. With `COc1cc(/C=C/C(=O)OCC(=O)Nc2ccccc2Sc2ccc(Cl)cc2)ccc1O` the figure was 5.21%; with `COc1cc(Cl)c(C)cc1NC(=O)CC1SC(N2CCOCC2)=NC1=O` (centres unmarked), -7.91%; with `Cc1ccc(C(=O)NCCCNC(=O)COc2ccc(C)c(C)c2)cn1`, 1.33%. With `CCOc1c(Br)cc(C(N)=O)cc1OCc1ccccc1` the figure was 14.8%; with `CCSc1nnc(NC(=O)C2(C)Cc3ccccc3C(=O)O2)s1` (centres unmarked), -8.01%; with `COC(=O)C1=NN(C(=O)c2ccccc2)C(C)(O)C1` (centres unmarked), 14.6%. For `Cc1ccc([N+](=O)[O-])cc1-c1ccc(/C=N/NC(=O)CN2CCOCC2)o1`, the “hERG current change (%, negative = inhibition) at 10uM” value is reported as -38.9%. With `CCC(C)(C)NC(=O)C(c1ccc(C)o1)N(Cc1ccc2c(c1)OCO2)C(=O)c1snc(C(N)=O)c1N` (centres unmarked) the figure was 9.31%; with `CC(=O)c1cccc(NC(=O)CSc2nc(=O)n(Cc3ccccn3)c3c2CCC3)c1`, -15.2%; with `CCn1c(/C=C/Nc2ccccc2)[n+](CC)c2cc(Cl)c(Cl)cc21.[I-]`, -79.3%. As for `CS(=O)(=O)Nc1ccccc1C(=O)Nc1ccccc1C(=O)N1CCCC1`, the figure is 17.6%.

For `O=c1[nH]c2ccccc2n1Cc1ccc(Cl)cc1`, the “hERG current change (%, negative = inhibition) at 10uM” value is -4.12%. Consider `CCc1ccc(NC(=O)Cc2c(C(=O)O)n(C)c3ccccc23)cc1`, for which the “hERG current change (%, negative = inhibition) at 10uM” value amounted to 33.5%. Turning to `CC1CCCCC1NC(=O)c1nn(C)c2c1CS(=O)(=O)c1ccccc1-2` (centres unmarked), the “hERG current change (%, negative = inhibition) at 10uM” value was -3.59%. As for `CC1CCCC(C)N1CC(O)COc1c(F)cc(Br)cc1F.Cl` (centres unmarked), the figure is -57.7%.
